Results as given in the supplement of paper PMC10369915.
Some of the results follow. No stated cut-off is given here; in the data, active = 3.2 or more and inactive = the rest. Only a few entries rise above the background.

These binders were tested against SHP2 C-SH2 domain E139D (assay: enrichment score (SH2-bound / input frequency) (ratio); bacterial display of known human phosphotyrosine sites (pTyr-Var adds point mutants) read by sequencing; higher = stronger binding; tyrosines were phosphorylated by kinases first). Conditions: peptide library: pTyr-Var.
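Further: displayed peptides selected on beads carrying the immobilized SH2 domain, with library peptides lacking any tyrosine serving as negative controls.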

Enrichment score, inactive:
ATPSQYMTFLH [DYNC2H1_Y2872_R2871Q] 1.01, LGQRIYQYIQS [DYRK1B_Y271] 1.48, QRIYQYIQSRF [DYRK1B_Y273] 2.23, QRIYQYIRSRF [DYRK1B_Y273_Q275R] 0.242, AAVNGYVFGGG [ECHS1_Y137_A138V] 0.824, GANSEYIIAEK [ECHS1_Y35_F33S] 0.646, MMVGAYSSLEG [ECPAS_Y470_T472S] 1.05, ISTAGYSIPEL [EDAR_Y406] 0.854, PLQDVYKIGGI [EEF1A2_Y254] 1.05, VFPATYHPDHW [EFCAB12_Y544_YF] 1.14, RNESFYDTFST [EFCAB3_Y372] 0.783, STEEQYRIRQV [EFHC1_Y115] 0.794, INVTIYGKTFR [EFHC1_Y177_I174V] 1.37, INITIYGKTFC [EFHC1_Y177_R182C] 1.38, INITIYGKTFH [EFHC1_Y177_R182H] 1.39, SSPMKYQQNVS [EGFEM1P_Y160] 0.769, IRGNMYFENSF [EGFR_Y112_YF] 1.11, RGNMYYENSYA [EGFR_Y113] 1.03, KGNMFYENSFA [EGFR_Y113_R108K_YF] 1.53

Each binder was assayed against SHP2 C-SH2 domain wild-type in the same assay as above. Conditions: peptide library: pTyr-Var.

Enrichment score, inactive:
ATPSQYMTFLH [DYNC2H1_Y2872_R2871Q] 1.32, LGQRIYQYIQS [DYRK1B_Y271] 1.73, QRIYQYIQSRF [DYRK1B_Y273] 2.03, QRIYQYIRSRF [DYRK1B_Y273_Q275R] 0.276, AAVNGYVFGGG [ECHS1_Y137_A138V] 0.742, GANSEYIIAEK [ECHS1_Y35_F33S] 0.538, MMVGAYSSLEG [ECPAS_Y470_T472S] 0.928, ISTAGYSIPEL [EDAR_Y406] 1.1, PLQDVYKIGGI [EEF1A2_Y254] 0.806, VFPATYHPDHW [EFCAB12_Y544_YF] 1.04, RNESFYDTFST [EFCAB3_Y372] 0.678, STEEQYRIRQV [EFHC1_Y115] 0.576, INVTIYGKTFR [EFHC1_Y177_I174V] 1.34, INITIYGKTFC [EFHC1_Y177_R182C] 1.94, INITIYGKTFH [EFHC1_Y177_R182H] 1.9, SSPMKYQQNVS [EGFEM1P_Y160] 0.557, IRGNMYFENSF [EGFR_Y112_YF] 1.33, RGNMYYENSYA [EGFR_Y113] 0.909, KGNMFYENSFA [EGFR_Y113_R108K_YF] 1.78

What follows are binders tested against SHP2 N-SH2 domain L43F in the same assay as above. Conditions: peptide library: pTyr-Var.

Enrichment score, inactive:
ATPSQYMTFLH [DYNC2H1_Y2872_R2871Q] 1.1, LGQRIYQYIQS [DYRK1B_Y271] 2.06, QRIYQYIQSRF [DYRK1B_Y273] 2.02, QRIYQYIRSRF [DYRK1B_Y273_Q275R] 0.262, AAVNGYVFGGG [ECHS1_Y137_A138V] 0.764, GANSEYIIAEK [ECHS1_Y35_F33S] 0.518, MMVGAYSSLEG [ECPAS_Y470_T472S] 0.831, ISTAGYSIPEL [EDAR_Y406] 1.09, PLQDVYKIGGI [EEF1A2_Y254] 0.958, VFPATYHPDHW [EFCAB12_Y544_YF] 1.16, RNESFYDTFST [EFCAB3_Y372] 0.981, STEEQYRIRQV [EFHC1_Y115] 0.737, INVTIYGKTFR [EFHC1_Y177_I174V] 1.33, INITIYGKTFC [EFHC1_Y177_R182C] 1.69, INITIYGKTFH [EFHC1_Y177_R182H] 1.58, SSPMKYQQNVS [EGFEM1P_Y160] 0.568, IRGNMYFENSF [EGFR_Y112_YF] 1.35, RGNMYYENSYA [EGFR_Y113] 0.87, KGNMFYENSFA [EGFR_Y113_R108K_YF] 1.94

What follows are binders tested against SHP2 N-SH2 domain T42A in the same assay as above. Conditions: peptide library: pTyr-Var.

Enrichment score, active:
QRIYQYIQSRF [DYRK1B_Y273] 3.7

Enrichment score, inactive:
ATPSQYMTFLH [DYNC2H1_Y2872_R2871Q] 1.21, LGQRIYQYIQS [DYRK1B_Y271] 2.49, QRIYQYIRSRF [DYRK1B_Y273_Q275R] 0.337, AAVNGYVFGGG [ECHS1_Y137_A138V] 0.736, GANSEYIIAEK [ECHS1_Y35_F33S] 0.573, MMVGAYSSLEG [ECPAS_Y470_T472S] 1.31, ISTAGYSIPEL [EDAR_Y406] 1.43, PLQDVYKIGGI [EEF1A2_Y254] 1.04, VFPATYHPDHW [EFCAB12_Y544_YF] 0.804, RNESFYDTFST [EFCAB3_Y372] 0.622, STEEQYRIRQV [EFHC1_Y115] 0.577, INVTIYGKTFR [EFHC1_Y177_I174V] 1.3, INITIYGKTFC [EFHC1_Y177_R182C] 1.38, INITIYGKTFH [EFHC1_Y177_R182H] 1.25, SSPMKYQQNVS [EGFEM1P_Y160] 0.61, IRGNMYFENSF [EGFR_Y112_YF] 1.19, RGNMYYENSYA [EGFR_Y113] 0.739, KGNMFYENSFA [EGFR_Y113_R108K_YF] 2.14

What follows are binders tested against SHP2 N-SH2 domain T52S in the same assay as above. Conditions: peptide library: pTyr-Var.

Enrichment score, inactive:
ATPSQYMTFLH [DYNC2H1_Y2872_R2871Q] 0.938, LGQRIYQYIQS [DYRK1B_Y271] 2.07, QRIYQYIQSRF [DYRK1B_Y273] 1.85, QRIYQYIRSRF [DYRK1B_Y273_Q275R] 0.229, AAVNGYVFGGG [ECHS1_Y137_A138V] 0.742, GANSEYIIAEK [ECHS1_Y35_F33S] 0.574, MMVGAYSSLEG [ECPAS_Y470_T472S] 0.978, ISTAGYSIPEL [EDAR_Y406] 0.978, PLQDVYKIGGI [EEF1A2_Y254] 1.05, VFPATYHPDHW [EFCAB12_Y544_YF] 1.21, RNESFYDTFST [EFCAB3_Y372] 0.961, STEEQYRIRQV [EFHC1_Y115] 0.711, INVTIYGKTFR [EFHC1_Y177_I174V] 0.912, INITIYGKTFC [EFHC1_Y177_R182C] 1.43, INITIYGKTFH [EFHC1_Y177_R182H] 1.53, SSPMKYQQNVS [EGFEM1P_Y160] 0.735, IRGNMYFENSF [EGFR_Y112_YF] 1.22, RGNMYYENSYA [EGFR_Y113] 0.953, KGNMFYENSFA [EGFR_Y113_R108K_YF] 1.53

The binders below were run against SHP2 N-SH2 domain wild-type in the same assay as above. Conditions: peptide library: pTyr-Var.

Enrichment score, inactive:
ATPSQYMTFLH [DYNC2H1_Y2872_R2871Q] 0.952, LGQRIYQYIQS [DYRK1B_Y271] 1.28, QRIYQYIQSRF [DYRK1B_Y273] 1.62, QRIYQYIRSRF [DYRK1B_Y273_Q275R] 0.484, AAVNGYVFGGG [ECHS1_Y137_A138V] 0.733, GANSEYIIAEK [ECHS1_Y35_F33S] 0.621, MMVGAYSSLEG [ECPAS_Y470_T472S] 0.974, ISTAGYSIPEL [EDAR_Y406] 0.915, PLQDVYKIGGI [EEF1A2_Y254] 0.963, VFPATYHPDHW [EFCAB12_Y544_YF] 1.07, RNESFYDTFST [EFCAB3_Y372] 0.686, STEEQYRIRQV [EFHC1_Y115] 0.524, INVTIYGKTFR [EFHC1_Y177_I174V] 1.65, INITIYGKTFC [EFHC1_Y177_R182C] 1.9, INITIYGKTFH [EFHC1_Y177_R182H] 1.77, SSPMKYQQNVS [EGFEM1P_Y160] 0.857, IRGNMYFENSF [EGFR_Y112_YF] 1.37, RGNMYYENSYA [EGFR_Y113] 0.872, KGNMFYENSFA [EGFR_Y113_R108K_YF] 1.63
